# Experimental data reported in the supplement of paper PMC3334620.
# The full ranking holds about 33,000 sequences; the median of “E-score (-0.5 to 0.5)” is about -0.017, and the highest 2% start at about 0.3. This is one part of the list.
# Molecular target: T1, Sut1 (UniProt P53032)
# T1 sequence: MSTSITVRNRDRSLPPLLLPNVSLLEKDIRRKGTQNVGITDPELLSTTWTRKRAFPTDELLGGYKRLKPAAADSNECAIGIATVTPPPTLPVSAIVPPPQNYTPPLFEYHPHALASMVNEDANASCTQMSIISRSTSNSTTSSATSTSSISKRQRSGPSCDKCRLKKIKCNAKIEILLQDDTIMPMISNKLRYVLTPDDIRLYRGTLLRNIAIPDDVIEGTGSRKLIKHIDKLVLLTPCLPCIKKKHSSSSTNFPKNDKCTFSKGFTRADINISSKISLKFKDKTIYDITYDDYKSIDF
# Experiment: PBM E-score (8-mer binding enrichment) (E-score (-0.5 to 0.5)); higher = stronger / more preferred TF binding; most listed sequences are background and not binding sites
# Conditions: protein concentration: 200 nM; construct: GST-full length
# Method: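 Universal 'all 10-mer' protein binding microarrays (Agilent AMADID 015681) probed with GST-tagged S. cerevisiae TFs (full-length or DBD) made by in vitro transcription/translation (PURExpress), about 100-200 nM. Bound TF was detected with fluorescent anti-GST. Each ungapped 8-mer (which stands for itself and its reverse complement) is scored by the PBM enrichment score (E-score), a modified Wilcoxon-Mann-Whitney statistic from -0.5 to +0.5, computed with the Universal PBM Analysis Suite. Scale: above 0.35 generally sequence-specific binding.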
row,Sequence,PBM E-score
1,ACGCAACA,0.0423
2,GATCACCA,0.0174
3,CCGGGGTC,0.149
4,ATCAAGGC,-0.0554
5,ATGGCTGG,-0.179
6,ACATCCGT,0.107
7,AGCCGTAC,-0.0187
8,CGAGCATC,0.103
9,AGAACGAA,0.146
10,ACAAACAG,0.118
11,TCTGGGCA,-0.0108
12,AGCCGACT,-0.0411
13,CCCGGCCA,-0.106
14,CGCGCCGA,0.013
15,TGAAGACA,0.0524
16,GATAAGAA,0.203
17,GCTGCGCC,-0.0869
18,CAACTAAG,0.114
19,CAAGTCTC,-0.207
20,CAGCTGCA,-0.0541
21,AGCCCTTC,-0.212
22,TTACGTAA,-0.0108
23,ACGTCCAC,-0.188
24,AGCCACCC,-0.217
25,ACCGAAAT,0.157

row,Sequence,PBM E-score
1,AAAGGTAT,0.141
2,AGCAGTCG,-0.203
3,AGCATAAA,0.258
4,GAACCAAA,0.0874
5,CGGATACC,-0.0487
6,ACCTAAGC,-0.0154
7,CGTTCTCC,0.133
8,AGATCAGA,0.0769
9,AGTAGGAC,-0.00278
10,ACTGATAG,-0.0544
11,ACGTTAAG,0.0602
12,TGCCACCA,-0.245
13,AGAAGCAC,-0.139
14,ATCTAACG,0.0356
15,GGTGCTCA,-0.0548
16,CGGACCGC,0.124
17,AATCTAGA,0.0755
18,AAGACGTC,-0.135
19,CCTATGAG,-0.111
20,AAAAACGC,0.198
21,AGAGCGAC,-0.17
22,AGATGACG,-0.117
23,AGCTAGTC,0.146
24,CATCTCGC,-0.13
25,AACTGTCA,0.0244

row,Sequence,PBM E-score
1,ACCTGCAG,-0.245
2,AGTTGCGA,0.133
3,CCCTCGAG,-0.261
4,ACCCTTGA,-0.17
5,ACAGTGTA,-0.0288
6,ACAATGCG,0.125
7,GAGTTGCC,0.0547
8,TAAAGTGA,0.128
9,ACTCCAAG,-0.0437
10,ACGGTAAA,0.0293
11,GTCTAGCA,0.0494
12,TTTGCAAA,0.0686
13,TCACGTCA,-0.0875
14,GAAGTGCA,-0.0894
15,AGTGGGGC,-0.424
16,CATATTTA,0.243
17,GCCCTAGC,-0.208
18,GCGGTCAA,-0.186
19,CCGCGGTC,0.0819
20,AAGATAAT,0.204
21,AGCCAGAT,-0.112
22,GGAACTAA,0.194
23,CTGACGGC,-0.214
24,AATTACGC,-0.0475
25,ATCACAGA,0.00232

row,Sequence,PBM E-score
1,AGGCAAAA,0.134
2,GTCGACAA,-0.236
3,TATACAAA,0.237
4,ACAAGTTC,0.0329
5,CCAATGAG,-0.159
6,AGCTGTCG,-0.158
7,AACGGACC,0.191
8,ACCGAGAG,0.0245
9,GCCGCTTA,-0.105
10,GGGCGTGA,-0.182
11,CCGAAGAG,-0.0171
12,TAATCCAA,0.0921
13,CCCGAGTA,0.0788
14,CCCTCTCA,-0.299
15,ACTCGAAG,-0.12
16,CCCCAAAC,-0.111
17,ATATGTCC,0.196
18,ACCCCCAT,-0.251
19,CCGAACCC,0.164
20,CGTGGGAG,-0.0674
21,CCGCACTA,0.121
22,CTTCCTAA,0.118
23,CGCTCGCA,0.0517
24,AAAACAGA,0.0797
25,ATACTTTC,0.191

row,Sequence,PBM E-score
1,GCCACGAA,-0.199
2,ACTCTGTC,-0.176
3,CTTGATAA,0.206
4,GTCAGCAC,-0.0173
5,TACTATCA,0.173
6,GGGGCAGA,-0.195
7,GTTTCGCA,-0.062
8,CATATACC,-0.124
9,ACCCGCGT,-0.233
10,AATCACTC,-0.0706
11,CATTCTAA,0.11
12,ATCAGAGA,0.0328
13,ACGCACCA,-0.269
14,ACTAAGCA,-0.0381
15,CCTGCTGC,-0.0998
16,ACTGAGTG,0.123
17,GAAGTGTC,-0.00653
18,AGGTTTCA,0.0578
19,ACGGGAAC,-0.12
20,AGATAGCA,0.147
21,AGCGTTAA,0.153
22,ACGTGTTA,-0.0186
23,AGAAGGAA,-0.183
24,ATTGTTCA,0.0247
25,GACTTTAC,0.157

row,Sequence,PBM E-score
1,CTAGGCGA,-0.16
2,CTACATGA,-0.173
3,CTGTTTGC,-0.145
4,TAGCGCGA,0.057
5,AGGCCACG,-0.142
6,CGATTGAA,0.126
7,CGATAGTA,-0.0234
8,GAACAAAC,0.254
9,AGTCGTGG,-0.124
10,ATACACAC,-0.0228
11,GGAATCGA,0.0454
12,AACATCAC,0.0298
13,TTACAGAA,0.00668
14,GTATCACA,0.0305
15,CACGGTTA,0.0314
16,CAAATTCC,0.197
17,CCATAGAA,0.0964
18,TGCGTTAA,-0.00864
19,CAAAGGGA,-0.213
20,AGCACGTC,-0.202
21,AGTACCAA,0.164
22,CCGGGCCC,0.281
23,ACGGCGGA,0.0877
24,CTTGACTC,-0.189
25,ATGAGGCC,-0.148

row,Sequence,PBM E-score
1,ACTTACGG,0.22
2,AAATGGCC,-0.0988
3,ACAGACGG,-0.0962
4,GCTGTGGA,-0.148
5,AGCCGATA,-0.0788
6,GGTCTGAA,0.108
7,TGATCTAA,0.111
8,GTAGAAAA,0.153
9,TTGGTAAA,0.167
10,GAATCGCC,-0.17
11,CCCGTGAA,-0.00725
12,AGGCTTCC,-0.0189
13,AGGAGGCA,-0.238
14,CGGATGTA,0.0559
15,CGCAAAAA,0.0966
16,CAAGAATC,0.0454
17,TGCTGACA,0.0537
18,TATAATCA,0.203
19,CAGGACAC,-0.248
20,ATCAACGA,0.0449
21,AAATATAT,0.365
22,AACAACCG,0.18
23,ATTCGTGA,0.0284
24,GCACGAAA,0.105
25,GCGCTGTA,-0.161

row,Sequence,PBM E-score
1,AACACCCA,-0.0569
2,ACATTGCG,-0.125
3,ATCATATC,0.153
4,GACAATGA,-0.0173
5,GCAGCCGA,-0.067
6,GAGTGCCA,-0.183
7,ATAGAGAT,0.0602
8,GCCAAGTA,-0.191
9,CGCTACTA,0.269
10,GGGGATAA,-0.115
11,AACAGTCG,0.0218
12,AAAGCAAC,0.0602
13,TCTAGCCA,-0.0636
14,ACTCCGGG,0.491
15,CCCTTCGC,-0.245
16,GGTCTTCA,-0.0448
17,CAAGCCGA,0.0166
18,AAATGTAT,0.304
19,AAGCACAG,0.0105
20,CAGATGTA,-0.151
21,AACATTAT,0.263
22,ACCCCACT,-0.0877
23,CATATAAC,0.141
24,CGGGTTCA,0.0274
25,ACAGTATG,0.00147

row,Sequence,PBM E-score
1,CACTTCCA,-0.142
2,AGCGCCTC,-0.0302
3,AGTCCACA,-0.0475
4,ACTCTGAA,0.0683
5,AATACCGA,0.158
6,CTAATCGA,0.0022
7,CGTGACTA,0.0165
8,CAATGCAG,-0.113
9,CTTACAGA,-0.104
10,AGCGCAGC,-0.149
11,AGATAAGA,0.101
12,ATAGAGAA,0.179
13,CCCGATGA,-0.022
14,TATGGCGA,-0.304
15,ACAGGCAC,-0.0536
16,CAGTCAAA,0.0987
17,CGCATAGA,-0.0782
18,CACTTGAA,0.0903
19,TCTTAACA,0.0137
